Test results reported in PubChem BioAssay AID488969 (Vanderbilt High Throughput Screening Facility, 2010).
Where “and” joins values, the source holds several entries; their conditions need not be identical. Identical values can stand only once. In all, about 110,000 compounds were measured (“z-score”: median about -0.1, highest 2% from about 2 on). This is one part of the list. Calls of active or inactive are those of the source.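 The calls were made as follows: active = z-score in the third read window above 3 or below -3; inactive = the rest.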

Each compound was assayed against Metabotropic glutamate receptor 8 (Rattus norvegicus) (UniProt P70579) (assay: rat mGluR8 modulators via GIRK flux, primary screen, cell-based, thallium flux, HTS (AID 488969)). Conditions: HEK293 rat mGluR8, GIRK (G protein-gated inwardly rectifying potassium channel) thallium flux, FluoZin2; at 10 µM; stronger effect = higher value; submaximal glutamate (EC20) added with thallium.
Sequence of UniProt P70579 (P70579 whole entry, looked up): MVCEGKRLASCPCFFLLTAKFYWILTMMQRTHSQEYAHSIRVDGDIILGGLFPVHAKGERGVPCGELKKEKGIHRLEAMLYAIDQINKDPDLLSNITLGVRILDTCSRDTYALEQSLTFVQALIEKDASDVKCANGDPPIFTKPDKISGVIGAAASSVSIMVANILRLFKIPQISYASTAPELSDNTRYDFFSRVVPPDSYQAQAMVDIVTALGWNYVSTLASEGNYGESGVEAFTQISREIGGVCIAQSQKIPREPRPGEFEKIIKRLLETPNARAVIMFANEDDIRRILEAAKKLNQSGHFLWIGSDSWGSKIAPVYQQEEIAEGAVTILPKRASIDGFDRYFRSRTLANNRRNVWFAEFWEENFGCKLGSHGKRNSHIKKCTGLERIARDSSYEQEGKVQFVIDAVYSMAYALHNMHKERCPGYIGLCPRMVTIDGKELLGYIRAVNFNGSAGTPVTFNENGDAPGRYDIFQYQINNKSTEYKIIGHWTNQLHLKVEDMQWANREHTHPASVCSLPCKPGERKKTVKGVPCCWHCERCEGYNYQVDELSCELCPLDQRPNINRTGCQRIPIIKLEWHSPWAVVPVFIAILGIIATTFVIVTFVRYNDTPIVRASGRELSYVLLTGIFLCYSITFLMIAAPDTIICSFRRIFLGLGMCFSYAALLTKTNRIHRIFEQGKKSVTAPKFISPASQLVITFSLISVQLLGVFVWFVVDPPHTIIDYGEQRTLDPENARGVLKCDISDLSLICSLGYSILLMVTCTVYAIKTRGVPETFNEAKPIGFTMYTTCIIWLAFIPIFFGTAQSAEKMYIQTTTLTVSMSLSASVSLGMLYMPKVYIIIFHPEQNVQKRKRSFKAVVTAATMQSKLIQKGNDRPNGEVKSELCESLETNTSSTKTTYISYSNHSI

First: CSc1nnc(-c2nnc(SC)n2-c2ccccc2)n1-c1ccccc1
Second: CCOC(=O)C1=NN(c2ccccc2)C(c2ccccc2)CC1=O (stereo not given)
The z-score of the first is lower: -0.386 for the first, -0.374 for the second.

First: CCc1c(C(=O)Nc2ccccc2)c(C)[nH]c(=S)c1C#N
Second: CCCC(=O)C1=C(c2ccccc2)C(C#N)(C#N)C(C#N)=C1N
The z-score of the first is higher: 0.498 for the first, -0.464 for the second.

First: Cc1ccccc1OC(=O)CCC(=O)OCCCC(F)(F)C(F)(F)F
Second: COCCNC(=O)c1ccc(C(=O)C(=O)c2ccccc2)cc1
The z-score of the first is lower: -0.253 for the first, -0.189 for the second.

First: COc1cc2c(cc1NC(=O)CN(C)Cc1ccc(OC)c(OC)c1)oc1ccccc12
Second: COc1ccc(C2C(C(=O)NCc3cccnc3)c3cc(OC)c(OC)cc3C(=O)N2C)cc1 (stereo not given)
The z-score of the first is lower: -0.329 for the first, 0.0295 for the second.

Compared with `O=C(COc1ccccc1-c1ccccc1)NCCN1C(=O)S/C(=C\c2cccnc2)C1=O`, `CCN(CCCNC(=O)CCNC(=O)Cn1cnc2ccccc2c1=O)c1ccccc1` is higher in z-score: -0.227 for the first, 0.554 for the second.

Compared with `Cc1cc(NS(=O)(=O)c2ccc(NC(=O)Nc3cccc(Cl)c3)cc2)no1`, `Cc1cc(C)nc(NS(=O)(=O)c2ccc(NC(=O)c3ccc(N4C(=O)CCC4=O)cc3)cc2)n1` is higher in z-score: -0.923 for the first, -0.171 for the second.

First: C=COCCn1c(=N)n(CCC)c2ccccc21
Second: Cn1c(=O)n(CC(N)=O)c2ccccc21
The z-score of the first is lower: 0.749 for the first, 0.941 for the second.

First: COc1ccc2c(c1)CCc1c(C(=O)Nc3c(C)n(C)n(-c4ccccc4)c3=O)noc1-2
Second: COCCNS(=O)(=O)c1cc(-c2nn(C)c(=O)c3ccccc23)ccc1C
The z-score of the first is lower: -0.0467 for the first, -0.0441 for the second.

First: FC(F)(F)c1ccccc1CN1CCN(C2CCCCCC2)CC1
Second: Cn1c2ccccc2c2c(C(=O)N3CCN(c4ccccn4)CC3)cn(C3CCCC3)c(=O)c21
The z-score of the first is lower: -0.759 for the first, -0.456 for the second.

Compared with `Cc1ccc(N2C(=O)/C(=C\c3ccc(C(C)C)cc3)N=C2SC2CCOC2=O)cc1` (stereo not given), `Cc1ccc(CSCCNC(=O)/C=C/c2ccccc2Cl)cc1` is lower in z-score: 1.42 for the first, -0.313 for the second.

Going from `CCC1CCCCN1C(=O)CSc1nc2c([nH]c3ccccc32)c(=O)n1C` (stereo not given) to `O=C(CSc1nnc(C2COc3ccccc3O2)o1)N1CCCCC1` (stereo not given), the z-score rises from 0.357 to 1.26.

Compared with `CC1(C)CC(=O)C2=C(C1)OC(N)=C(C#N)C21CCN(C(=O)OCc2ccccc2)CC1`, `CCOC(=O)N1CCN(C(=O)Cn2c(=O)sc3ccccc32)CC1` is higher in z-score: 0.19 for the first, 0.357 for the second.

Going from `Cc1ccc(-c2csc(C3C(N)=NC(S)=C(C#N)C34CCCCC4)n2)cc1` (stereo not given) to `CC1=Nn2c(nnc2-c2ccc(F)cc2)SC1`, the z-score falls from 0.125 to -0.251.

Compared with `COc1ccc(CNC(=O)c2cnccn2)cc1`, `COc1ccc(-c2cc(=O)[nH]c(NCc3ccccc3)n2)cc1` is lower in z-score: 0.391 for the first, 0.373 for the second.

Compared with `O=C(NCC1CCCO1)c1coc2nc3ccccc3nc12` (stereo not given), `c1ccc2c(c1)nnn2Cc1nnc2sc(-c3ccc4c(c3)OCCO4)nn12` is lower in z-score: -0.034 for the first, -0.428 for the second.

First: O=C(NCSc1ccnc(SCNC(=O)c2ccccc2)n1)c1ccccc1
Second: COc1cc(/C=N/NC(=O)c2cccc([N+](=O)[O-])c2)ccc1OCc1ccccc1
The z-score of the first is higher: 0.0913 for the first, -0.158 for the second.

Compared with `O=C(Nc1ccon1)c1cccc(Cl)c1`, `Clc1cccc(-c2nc(-c3ccccn3)no2)c1` is lower in z-score: 0.0656 for the first, -0.35 for the second.

Going from `Cc1nc(CS(=O)c2ccccc2)cc(N2CCOCC2)n1` (stereo not given) to `O=C(c1ccc(N2CCOCC2)nc1)N1CCCCC1`, the z-score falls from -0.0293 to -0.222.

First: CC(C)(C)c1csc(NC(=O)Cn2cnc3ccccc3c2=O)n1
Second: CCn1c(SCC(=O)Nc2nccs2)nnc1-c1ccncc1
The z-score of the first is lower: 0.0106 for the first, 1.43 for the second.

Compared with `CC(=O)OCc1nc2sc(C)c(C)c2c(=O)[nH]1`, `CCOC(=O)C1CCN(C(c2cc3cc(C)cc(C)c3[nH]c2=O)c2nnnn2C2CCCCC2)CC1` (stereo not given) is lower in z-score: 0.565 for the first, -0.0618 for the second.

First: COc1cc2c(C(=O)NCc3ccc(C)o3)cn(CC(C)C)c(=O)c2cc1OC
Second: CCCN1Cc2cccc(C(=O)NCc3cccs3)c2C1=O
The z-score of the first is higher: -0.298 for the first, -0.546 for the second.

Going from `CN(C)S(=O)(=O)c1cccc(NC(=O)COC(=O)c2ccc([N+](=O)[O-])o2)c1` to `CCc1ccc(NC(=O)CO/N=C(\C)c2cc3ccccc3o2)cc1`, the z-score rises from -0.334 to -0.0926.

Going from `CCC(C)(C(=O)NC1CCCC1)N(C(=O)CC1NC(=O)NC1=O)c1ccc(C)cc1` (stereo not given) to `Cc1ccc(C)c(N(CC(=O)NC2CCCC2)C(=O)c2cc3cc4cccc(C)c4nc3s2)c1`, the z-score rises from -0.192 to -0.00669.

Compared with `CCC(=O)c1ccc(OCC(O)CN2CCN(c3ccc(F)cc3)CC2)cc1` (stereo not given), `COc1ccc(C(=O)C[n+]2ccccc2/C=N/O)cc1` is higher in z-score: -0.155 for the first, -0.11 for the second.

Going from `Cc1ccc2c(C)c(C(=O)N(Cc3cccs3)C3CCS(=O)(=O)C3)oc2c1` (stereo not given) to `O=C(CN1C(=O)c2ccccc2S1(=O)=O)NCCSCc1ccco1`, the z-score falls from -0.396 to -0.602.

Compared with `Fc1cccc(Nc2nc(-c3ccncc3)nc3ccccc23)c1`, `Cc1cccc(/C=N/NC(=O)C(C)Nc2cccc3ccccc23)n1` (stereo not given) is higher in z-score: -0.256 for the first, 0.282 for the second.

Compared with `O=S(=O)(NCCO)c1cccc2cccnc12`, `C=CCNC(=O)CN(c1cccc(Br)c1)S(C)(=O)=O` is higher in z-score: -0.652 for the first, -0.0984 for the second.

Compared with `O=C1CC(C(=O)Nc2ccccc2)C2(CCCCC2)O1` (stereo not given), `N#Cc1ccccc1NC(=O)CNc1ccccc1N1CCCCC1` is lower in z-score: -0.333 for the first, -0.555 for the second.

Going from `COc1ccc(-c2cc(C(F)(F)F)nc(S(C)(=O)=O)n2)cc1` to `CCNc1nc(N)nc(Oc2ccc(OCCOc3ccc(Cl)cc3Cl)nn2)n1`, the z-score rises from -0.731 to -0.437.

First: CCC1CCC2(CC1)NC(=O)N(CC(=O)Nc1cc(C)on1)C2=O (stereo not given)
Second: Cc1cc(NC(=O)CCCN2C(=O)c3cccnc3C2=O)no1
The z-score of the first is lower: -0.158 for the first, -0.0708 for the second.

First: Cc1ccccc1-n1c(=O)cc(NCc2ccc3c(c2)OCO3)[nH]c1=O
Second: Brc1ccc(-c2nnc(-c3ccc4c(c3)OCO4)o2)o1
The z-score of the first is higher: 0.66 for the first, 0.244 for the second.

Going from `O=C(Cn1nnc(-c2cc(Cl)ccc2-n2cnnn2)n1)N1CCCc2ccccc21` to `C=CCn1c(CCC(=O)Nc2ccc(C)c(Cl)c2)nnc1SCC(=O)Nc1ccccc1C`, the z-score falls from 0.0522 to -0.404.

First: CCOc1cc(-c2noc(N)c2C#N)cc(OCC)c1OCC
Second: COc1ccccc1OCCCn1cc(C#N)c2ccccc21
The z-score of the first is higher: -0.627 for the first, -0.879 for the second.

For `Cn1cccc1-c1nc2ccc(NC(=O)c3cccs3)cc2[nH]1`, the z-score was active: -3.62.
In the case of `CCN(CC)CCn1c(NC(=O)c2ccc(Cl)cc2)nc2ccccc21`, the z-score is reported as active: 4.18.
In the case of `O=c1cc(O)nc(SCc2ccccc2)n1-c1ccccc1`, the z-score is reported as -0.589 and -0.489.
With `O=C(CNC(=S)NC(=O)c1cccs1)c1ccccc1` the z-score was active: 6.19.
